Measured values: PubChem BioAssay (NCATS)
Inconclusive results, whose numbers are uncertain, are shown with a selection of clear calls. For some of these results: Potencies of inconclusive entries are left out as doubtful fits. Calls of active or inactive are those of the source. Calls come from the whole dose curve; as a rule, active = well fitted curve in the direction sought with a large enough effect; inconclusive = small, poorly fitted or top-dose-only effect, or another doubt; inactive = no such curve, though single readings can be large; an effect the other way counts as inactive or inconclusive.

Assays:
[1] = test system: Zika virus NS2B-NS3 protease (linked construct); assay: Primary screen NINDS Rhodamine qHTS for Zika virus inhibitors (AID 1347160); note: potency is the fitted concentration of half-maximal effect; nearly all actives have a fitted effect of over 55% in size
Method in brief: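 Purified linked NS2B-NS3 protease (NS2B hydrophilic domain joined to NS3 protease by flexible linker), 25 nM in 10 mM Tris-HCl pH 8.0, 0.01% Tween 20. Compounds titrated, 15 min preincubation at room temperature; 1.5 microM Rhodamine110 substrate, FITC fluorescence change over 15 min.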

[2] = OV-KATE Cancer Cell Toxicity qHTS against the NCATS CANVASS Library (AID 1347345); note: potency is the fitted concentration of half-maximal effect
Method in brief: (§1)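 1000 cells/well seeded and rested 4 h at 37 °C before pin transfer of compounds in an 11-pnt series. Exposure 72 h at 37 °C/5% CO2; viability by CellTiter-Glo luminescence after 15 min at room temperature.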

[3] = UWB1.289 Cancer Cell Toxicity qHTS against the NCATS CANVASS Library (AID 1347347); note: potency is the fitted concentration of half-maximal effect; nearly all actives have a fitted effect of over 60% in size
Method in brief: as §1

[4] = OV-SAHO Cancer Cell Toxicity qHTS against the NCATS CANVASS Library (AID 1347348); settings: OV-SAHO viability, CellTiter-Glo luminescence, 72 h; series mostly up to 38.3 µM; note: potency is the fitted concentration of half-maximal effect; nearly all actives have a fitted effect of over 55% in size
Method in brief: as §1

[5] = Panc-1005 Cancer Cell Toxicity qHTS against the NCATS CANVASS Library (AID 1347349); note: potency is the fitted concentration of half-maximal effect; nearly all actives have a fitted effect of over 60% in size
Method in brief: as §1

[6] = SW1088 Cancer Cell Toxicity qHTS against the NCATS CANVASS Library (AID 1347350); note: nearly all actives have a fitted effect of over 75% in size; note: potency is the fitted concentration of half-maximal effect
Method in brief: as §1

[7] = UWB1.289-WTBRCA1 Cancer Cell Toxicity qHTS against the NCATS CANVASS Library (AID 1347354); note: potency is the fitted concentration of half-maximal effect
Method in brief: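 Cells were seeded at 1000 per well and allowed to settle 4 hours at 37 degrees C before pin transfer of compounds as an 11-point series. Viability was read by CellTiter-Glo luminescence after 72 hours' exposure.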

[8] = qHTS for Antimalaria activity screened against the NCATS CANVASS Library (AID 1347380); note: potency is the fitted concentration of half-maximal effect; nearly all actives have a fitted effect of over 40% in size
Method in brief: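 P. falciparum Dd2-infected RBCs (2.5% hematocrit final, 0.3% parasitemia) in Albumax II RPMI were exposed to compounds in an 11-point qHTS series for 72 h at 37C under 5% O2/5% CO2, then lysed with SYBR Green.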

[9] = qHTS for Activators of p53 Stress Response Pathway screened against the NCATS CANVASS Library (AID 1347388); note: potency is the fitted concentration of half-maximal effect
Method in brief: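 Beta-lactamase reporter driven by p53 response elements in HCT-116 cells, read as the 460 nm/530 nm emission ratio after CCF4 loading, following 16 h of exposure to an 11-point series. Cell viability was measured in the same wells by CellTiter-Glo luminescence.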

[10] = Viability qHTS for inhibitors of the SERCaMP assay screened against the NCATS CANVASS Library (AID 1347400); note: nearly all actives have a fitted effect of over 70% in size
Method in brief: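 SH-SY5Y-GLuc SERCaMP MJH297-derived cells (1000 cells/well) were pre-incubated 4 h at 37C, then exposed to compounds for 48 h. Viability was read as CellTiter-Glo luminescence; bortezomib served as positive control.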

[11] = U-118MG Cancer Cell Toxicity qHTS against the NCATS CANVASS Library (AID 1347351); note: potency is the fitted concentration of half-maximal effect
Method in brief: as §1

[12] = Secretion counterscreen for inhibitors of the SERCaMP assay screened against the NCATS CANVASS Library (AID 1347390); settings: SH-SY5Y constitutive GLuc secretion, luminescence, 20 h; activity change, negative = inhibition: at 76.6 µM (top of the series);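 note: light from luciferase secreted into medium read as a measure of general secretion; potency is the fitted concentration of half-maximal effect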
Method in brief: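 SH-SY5Y-GLuc STOP cells; 4 h attach; cpds 0.001 - 77 uM (qHTS, 11 pts), 20 h 37C/5% CO2; coelenterazine in glow buffer; luminescence, 5 s exposure.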

[13] = qHTS for inhibitors of ER calcium dysfunction: SERCaMP assay screened against the NCATS CANVASS Library (AID 1347393); settings: SH-SY5Y GLuc-SERCaMP (Gaussia luciferase released on ER calcium loss) secretion, thapsigargin, luminescence; activity change, negative = inhibition: at 76.6 µM (top of the series) unless noted; note: potency is the fitted concentration of half-maximal effect; nearly all actives have a fitted effect of over 40% in size
Method in brief: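 Thapsigargin-induced ER calcium depletion drives GLuc-SERCaMP secretion from SH-SY5Y cells; compounds given 16 h beforehand were scored by lowered coelenterazine luminescence after 4 h challenge.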

[14] = qHTS for inhibitors of Wild type Zika virus screened against the NCATS CANVASS Library (AID 1347396); note: potency is the fitted concentration of half-maximal effect
Method in brief: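 Vero 766 cells, 1000/well, o/n attach; cpds pin-transferred (11-pt qHTS); WT Zika added; 72 h, 37C, 5% CO2; CellTiter Glo lumi. Uninfected + vehicle = 100% inhibition.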
Tags give direction and shape of the fitted curve.

Oc1ccc(C2Oc3cc(O)c4c(c3[C@@H]2c2cc(O)cc(O)c2)[C@H]2C(c3ccc(O)cc3)c3c(O)cc5c(c3[C@H]2C4c2ccc(O)cc2)[C@H](c2cc(O)cc(O)c2)C(c2ccc(O)cc2)O5)cc1 (some centres not stated)
Potency [1]: active: 15.6 µM
Potency [2]: inconclusive [cytotoxic, full curve]
Potency [3]: inconclusive [cytotoxic, partial curve]
Potency [4]: active: 16.7 µM
Potency [5]: inconclusive [cytotoxic, full curve]
Potency [6]: inactive
Potency [7]: inconclusive [cytotoxic, single point]
Potency [8]: inconclusive [cytotoxic, partial curve, poor fit]
Potency [9]: inconclusive [activator, partial curve, poor fit]
Potency [10]: inactive

CC(=O)Oc1cc2c(c(OC(C)=O)c1C1CCc3cc(Cl)c(Cl)n31)C(=O)n1c-2cc(Cl)c1Cl (configuration not stated)
Potency [1]: active: 3.92 µM
Potency [2]: inconclusive [cytotoxic, partial curve]
Potency [3]: active: 3.34 µM
Potency [4]: active: 7.47 µM
Potency [6]: active: 4.73 µM
Potency [11]: active: 13.3 µM
Potency [7]: inconclusive [cytotoxic, partial curve]
Potency [8]: inconclusive [cytotoxic, partial curve, poor fit]
Potency [9]: inconclusive [activator, partial curve]
Potency [12]: inconclusive [inhibitor, partial curve, poor fit]
Potency [13]: inconclusive [inhibitor, single point]
Potency [14]: inconclusive [inhibitor, full curve]
